Paper PMC4081100
The entries are a selection whose mix differs from that of the whole data set. For part of these data: At the low end of the ranking the order means little. The list shows a part of the results. For part of these data: The source does not settle which construct or isoform was used.

Columns and labels:
Experiment in all cases: universal protein binding microarray (PBM)
Conditions in all cases: transcription factors of Arabidopsis thaliana; high values mean tight binding; most listed sequences are background and not binding sites; double strand, one strand shown
GST-ANAC092(1-176) = biological target: T1, GST-ANAC092(1-176) (UniProt Q9FKA0)
T1 sequence: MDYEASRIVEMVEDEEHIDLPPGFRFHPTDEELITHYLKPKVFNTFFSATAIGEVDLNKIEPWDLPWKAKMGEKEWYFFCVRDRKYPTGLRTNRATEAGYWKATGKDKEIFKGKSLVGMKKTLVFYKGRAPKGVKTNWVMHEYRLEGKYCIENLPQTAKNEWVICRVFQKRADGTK

GST-NTL6(1-168) = GST-NTL6(1-168) (UniProt Q9SCK6)
UniProt Q9SCK6, sequence (Q9SCK6 1-168): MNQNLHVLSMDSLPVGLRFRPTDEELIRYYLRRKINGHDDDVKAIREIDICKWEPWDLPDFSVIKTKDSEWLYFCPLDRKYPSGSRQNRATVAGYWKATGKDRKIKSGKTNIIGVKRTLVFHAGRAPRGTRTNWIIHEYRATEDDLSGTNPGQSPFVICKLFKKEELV

GST-ANAC019 NAC domain = biological target: T2, GST-ANAC019 NAC domain (UniProt Q9C932)
T2 sequence: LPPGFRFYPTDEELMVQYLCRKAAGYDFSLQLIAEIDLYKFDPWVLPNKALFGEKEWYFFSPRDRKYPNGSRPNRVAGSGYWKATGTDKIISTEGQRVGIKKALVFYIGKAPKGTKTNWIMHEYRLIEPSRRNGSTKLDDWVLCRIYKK

GST-ANAC055(1-171) = biological target: T3, GST-ANAC055(1-171) (UniProt Q9LDY8)
T3 sequence: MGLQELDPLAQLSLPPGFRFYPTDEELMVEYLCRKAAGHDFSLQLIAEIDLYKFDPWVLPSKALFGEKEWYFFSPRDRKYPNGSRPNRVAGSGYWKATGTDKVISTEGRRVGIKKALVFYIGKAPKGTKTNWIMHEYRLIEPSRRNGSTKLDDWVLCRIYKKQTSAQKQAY

GST-ATAF1 NAC domain = biological target: T4, GST-ATAF1 NAC domain (UniProt Q39013)
T4 sequence: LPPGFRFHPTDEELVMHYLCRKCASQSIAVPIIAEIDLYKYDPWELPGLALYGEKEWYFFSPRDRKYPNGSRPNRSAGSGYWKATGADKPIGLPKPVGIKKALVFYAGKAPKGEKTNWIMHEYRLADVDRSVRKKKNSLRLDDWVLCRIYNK

[1] = biological target: T5, GST-ANAC092(1-285) full length (UniProt Q9FKA0)
T5 sequence: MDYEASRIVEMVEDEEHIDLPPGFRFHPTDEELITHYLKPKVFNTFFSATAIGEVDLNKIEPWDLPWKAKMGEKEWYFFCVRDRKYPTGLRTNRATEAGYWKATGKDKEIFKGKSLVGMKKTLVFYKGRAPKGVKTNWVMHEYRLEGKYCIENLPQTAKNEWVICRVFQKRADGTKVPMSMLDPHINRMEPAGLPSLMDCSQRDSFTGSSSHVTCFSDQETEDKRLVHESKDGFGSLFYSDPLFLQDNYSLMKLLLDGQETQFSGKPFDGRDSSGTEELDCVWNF

GST-NAP(1-166) = biological target: T6, GST-NAP(1-166) (UniProt O49255)
T6 sequence: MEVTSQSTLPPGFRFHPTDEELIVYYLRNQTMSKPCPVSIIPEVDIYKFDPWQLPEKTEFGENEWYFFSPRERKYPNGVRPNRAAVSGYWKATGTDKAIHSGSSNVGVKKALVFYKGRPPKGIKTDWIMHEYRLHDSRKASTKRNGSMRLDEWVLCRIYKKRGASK

GST-NST2(1-184) = biological target: T7, GST-NST2(1-184) (UniProt Q9M274)
T7 sequence: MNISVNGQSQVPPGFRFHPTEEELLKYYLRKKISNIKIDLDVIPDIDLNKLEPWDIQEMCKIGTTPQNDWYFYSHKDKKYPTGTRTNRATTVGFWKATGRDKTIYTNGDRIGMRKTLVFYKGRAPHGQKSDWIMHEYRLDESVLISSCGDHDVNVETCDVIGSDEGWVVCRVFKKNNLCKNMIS

GST-NTL8 NAC domain = biological target: T8, GST-NTL8 NAC domain (UniProt Q9XIN7)
T8 sequence: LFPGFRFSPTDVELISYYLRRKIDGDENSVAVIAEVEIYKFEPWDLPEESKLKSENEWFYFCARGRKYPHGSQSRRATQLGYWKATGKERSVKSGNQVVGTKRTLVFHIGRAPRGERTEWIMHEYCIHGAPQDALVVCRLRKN

GST-SND1(1-203) = biological target: T9, GST-SND1(1-203) (UniProt Q9LPI7)
T9 sequence: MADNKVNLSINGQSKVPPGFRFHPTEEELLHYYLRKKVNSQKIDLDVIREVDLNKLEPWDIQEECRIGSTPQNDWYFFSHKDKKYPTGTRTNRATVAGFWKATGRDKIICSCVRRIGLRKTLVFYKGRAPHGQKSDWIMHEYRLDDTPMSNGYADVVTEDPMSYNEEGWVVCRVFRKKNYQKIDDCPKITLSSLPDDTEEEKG

GST-VND3 NAC domain = biological target: T10, GST-VND3 NAC domain (UniProt Q9FH59)
T10 sequence: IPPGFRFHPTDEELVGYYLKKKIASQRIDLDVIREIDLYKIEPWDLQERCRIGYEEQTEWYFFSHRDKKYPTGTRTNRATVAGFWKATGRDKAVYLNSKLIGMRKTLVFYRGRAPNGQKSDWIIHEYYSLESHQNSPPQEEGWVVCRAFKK

GST-VND7 NAC domain = biological target: T11, GST-VND7 NAC domain (UniProt Q9C8W9)
T11 sequence: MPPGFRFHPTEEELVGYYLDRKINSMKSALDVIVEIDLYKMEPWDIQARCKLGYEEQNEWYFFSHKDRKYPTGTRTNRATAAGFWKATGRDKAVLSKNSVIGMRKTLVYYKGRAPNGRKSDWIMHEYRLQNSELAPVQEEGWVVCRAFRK

[2] = biological target: T12, GST-VOZ2 (Arabidopsis thaliana) (UniProt Q9SLB9)
T12 sequence: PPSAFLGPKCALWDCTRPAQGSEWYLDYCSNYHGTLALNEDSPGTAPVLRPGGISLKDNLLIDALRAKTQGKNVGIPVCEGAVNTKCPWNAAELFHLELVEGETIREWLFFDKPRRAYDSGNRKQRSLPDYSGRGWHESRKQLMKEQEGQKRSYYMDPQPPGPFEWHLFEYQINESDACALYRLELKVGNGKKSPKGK

GST-WRKY1(266-371) = GST-WRKY1(266-371) (UniProt Q9SI37)

| Sequence | binding signal (GST-ANAC092(1-176)) [E-score] | binding signal (GST-NTL6(1-168)) [E-score] | binding signal (GST-ANAC019 NAC domain) [E-score] | binding signal (GST-ANAC055(1-171)) [E-score] | binding signal (GST-ATAF1 NAC domain) [E-score] | binding signal [1] [E-score] | binding signal (GST-NAP(1-166)) [E-score] | binding signal (GST-NST2(1-184)) [E-score] | binding signal (GST-NTL8 NAC domain) [E-score] | binding signal (GST-SND1(1-203)) [E-score] | binding signal (GST-VND3 NAC domain) [E-score] | binding signal (GST-VND7 NAC domain) [E-score] | binding signal [2] [E-score] | binding signal (GST-WRKY1(266-371)) [E-score] |
| --- | --- | --- | --- | --- | --- | --- | --- | --- | --- | --- | --- | --- | --- | --- |
| AGTCAACC | -0.0666 | 0.0241 | -0.0126 | -0.0642 | -0.000875 | -0.0794 | -0.0861 | -0.0249 | -0.00188 | -0.0403 | -0.0612 | -0.126 | -0.0667 | 0.486 |
| CTATGACC | -0.171 | -0.0402 | -0.147 | -0.177 | -0.143 | -0.142 | -0.0636 | -0.128 | -0.00596 | -0.119 | -0.0802 | -0.138 | -0.0806 | 0.412 |
| GGGGGGAA | 0.0206 | -0.135 | 0.0481 | -0.207 | -0.107 | -0.0709 | -0.231 | -0.285 | – | -0.0629 | -0.212 | 0.0325 | -0.127 | -0.125 |
| ACCGGTCA | -0.145 | -0.104 | -0.06 | -0.112 | -0.0819 | -0.167 | -0.042 | -0.0935 | -0.0124 | -0.0794 | -0.0851 | -0.0892 | -0.0894 | 0.463 |
| ACCTTGAC | -0.142 | -0.0752 | 0.013 | -0.0995 | -0.102 | 0.0121 | -0.0564 | -0.107 | -0.0557 | -0.0877 | -0.0812 | -0.0943 | -0.109 | 0.472 |
| ACTCTGAC | -0.119 | -0.114 | 0.0465 | -0.145 | -0.128 | -0.141 | 0.00092 | -0.125 | -0.0228 | -0.111 | -0.0893 | -0.0942 | -0.109 | 0.437 |
| CGGTTGAC | 0.0351 | -0.0804 | 0.023 | -0.0773 | -0.0196 | 0.00302 | -0.0194 | -0.0294 | -0.0476 | -0.027 | -0.135 | -0.0505 | -0.0822 | 0.475 |
| CGGTCATA | -0.295 | -0.168 | -0.243 | -0.143 | -0.123 | -0.0554 | 0.00553 | -0.155 | -0.137 | -0.0611 | -0.0774 | -0.231 | -0.158 | 0.415 |
| GACCGGTC | -0.228 | -0.133 | -0.117 | -0.237 | -0.282 | -0.313 | -0.0574 | -0.282 | -0.115 | -0.15 | -0.208 | -0.0871 | -0.1 | 0.445 |
| CAAGACCG | -0.0199 | -0.0487 | 0.0388 | -0.0564 | -0.17 | -0.0734 | 0.0131 | -0.0497 | 0.0186 | -0.0644 | -0.0307 | -0.0736 | -0.0284 | 0.405 |
| CTGACCAG | -0.0775 | -0.132 | -0.00213 | -0.197 | -0.138 | -0.092 | -0.0821 | -0.176 | -0.0247 | -0.0417 | -0.13 | -0.065 | -0.0939 | 0.444 |
